Test results published in the supplement of paper PMC4967469.
By IC50 is meant the dose at which the fit gives 50% viability; fits outside the tested doses are given as limits. AUC is the area under the same curve over the 256-fold range up to the top dose, as a fraction; it is 1 without any effect and falls as sensitivity rises. For some of these results: A top dose marked as inferred was derived from the fitted curves, not read from the paper. For some of these results: Drugs with an entry number were screened twice under separate entries, and the two screens often disagree.

Tests used:
Experiment in all cases: Viability of human cancer cell lines after 72 h of drug (GDSC screen)
(5Z)-7-Oxozeaenol = compound: COc1cc(O)c2c(c1)/C=C/C[C@H](O)[C@H](O)C(=O)/C=C\C[C@H](C)OC2=O [(5Z)-7-Oxozeaenol]; details: top dose 10 µM; top dose inferred
Protocol: (§1)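 Human cancer cell lines in 384-well plates, medium with 10% serum, drug for 72 h over a 256-fold dose range (nine 2-fold or five 4-fold steps up to the top dose). Adherent lines were fixed and stained with the nucleic acid dye Syto60, suspension lines read with resazurin; signal relative to control wells, capped at 0 and 100%. One two-parameter sigmoid per drug and line, fitted in a mixed model over all curves with the slope shared within a line.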

Cytarabine = compound: Nc1ccn([C@@H]2O[C@H](CO)[C@@H](O)[C@@H]2O)c(=O)n1 [Cytarabine]; details: top dose 2 µM
Protocol: as §1

ABT-888 = compound: C[C@]1(c2nc3c(C(N)=O)cccc3[nH]2)CCCN1 [ABT-888]; details: top dose 5 µM; top dose inferred
Protocol: as §1

MPS-1-IN-1 = compound: COc1cc(N2CCC(O)CC2)ccc1Nc1cc(Nc2ccccc2S(=O)(=O)C(C)C)c2cc[nH]c2n1 [MPS-1-IN-1]; details: top dose 20 µM; top dose inferred
Protocol: as §1

KU-55933 = compound: O=c1cc(-c2cccc3c2Sc2ccccc2S3)oc(N2CCOCC2)c1 [KU-55933]; details: top dose 10 µM
Protocol: as §1

Zibotentan = compound: COc1nc(C)cnc1NS(=O)(=O)c1cccnc1-c1ccc(-c2nnco2)cc1 [Zibotentan]; details: top dose 20 µM; top dose inferred
Protocol: as §1

CHIR-99021 = compound: Cc1cnc(-c2cnc(NCCNc3ccc(C#N)cn3)nc2-c2ccc(Cl)cc2Cl)[nH]1 [CHIR-99021]
Protocol: as §1

ABT-869 = compound: Cc1ccc(F)c(NC(=O)Nc2ccc(-c3cccc4[nH]nc(N)c34)cc2)c1 [ABT-869]; details: top dose 1.024 µM; top dose inferred
Protocol: as §1

Thapsigargin = compound: C/C=C(/C)C(=O)O[C@H]1C(C)=C2[C@H]([C@@H]1OC(=O)CCCCCCC)[C@@](C)(OC(C)=O)C[C@H](OC(=O)CCC)[C@@]1(O)[C@H]2OC(=O)[C@@]1(C)O [Thapsigargin]; details: top dose 0.512 µM; top dose inferred
Protocol: as §1

GSK269962A = compound: CCn1c(-c2nonc2N)nc2cnc(Oc3cccc(NC(=O)c4ccc(OCCN5CCOCC5)cc4)c3)cc21 [GSK269962A]; details: top dose 5 µM; screen: GDSC drug entry 1192; top dose inferred
Protocol: as §1

QL-X-138 = compound: C=CC(=O)Nc1cc(-n2c(=O)ccc3cnc4ccc(-c5cn[nH]c5)cc4c32)ccc1C [QL-X-138]; details: top dose 10.24 µM; top dose inferred
Protocol: as §1

CP466722 = compound: COc1cc2ncnc(-n3nc(-c4ccccn4)nc3N)c2cc1OC [CP466722]; details: top dose 16 µM; top dose inferred
Protocol: as §1

[1] = top dose 2.56 µM, screen: GDSC drug entry 154
[2] = top dose 10 µM, screen: GDSC drug entry 1241, top dose inferred

Cell Line | AUC ((5Z)-7-Oxozeaenol) | IC50 ((5Z)-7-Oxozeaenol) [nM] | AUC (Cytarabine) | IC50 (Cytarabine) [nM] | AUC (ABT-888) | IC50 (ABT-888) [µM] | AUC (MPS-1-IN-1) | IC50 (MPS-1-IN-1) [µM] | AUC (KU-55933) | IC50 (KU-55933) [µM] | AUC (Zibotentan) | IC50 (Zibotentan) [µM] | AUC (CHIR-99021; [1]) | IC50 (CHIR-99021; [1]) [µM] | AUC (CHIR-99021; [2]) | IC50 (CHIR-99021; [2]) [µM] | AUC (ABT-869) | IC50 (ABT-869) [nM] | AUC (Thapsigargin) | IC50 (Thapsigargin) [nM] | AUC (GSK269962A) | IC50 (GSK269962A) [µM] | AUC (QL-X-138) | IC50 (QL-X-138) [µM] | AUC (CP466722) | IC50 (CP466722) [µM]
RERF-LC-MS (lung adenocarcinoma, adherent) | 0.671 | 1900 | 0.857 | 1690 | 0.987 | > 5 | 0.914 | > 20 | 0.972 | > 10 | 0.984 | > 20 | 0.987 | > 2.56 | 0.923 | > 10 | 0.985 | > 1020 | 0.195 | 3.85 | 0.887 | > 5 | 0.957 | > 10.2 | 0.828 | 10.2
RERF-LC-Sq1 (lung squamous cell carcinoma, adherent) | 0.843 | > 10000 | 0.757 | 1010 | 0.943 | > 5 | 0.93 | > 20 | 0.884 | > 10 | 0.976 | > 20 | 0.977 | > 2.56 | 0.976 | > 10 | 0.975 | > 1020 | 0.514 | 35.5 | 0.817 | 4.67 | 0.8 | 7.95 | 0.837 | > 16
RH-41 (rhabdomyosarcoma, adherent) | 0.695 | 1980 | 0.46 | 99.2 | 0.987 | > 5 | 0.962 | > 20 | 0.931 | > 10 | 0.99 | > 20 | 0.992 | > 2.56 | 0.901 | 9.23 | 0.991 | > 1020 | 0.459 | 25.2 | 0.966 | > 5 | 0.652 | 1.56 | 0.901 | 14.8
RKN (ovary, adherent) | 0.46 | 482 | 0.751 | 690 | 0.981 | > 5 | 0.972 | > 20 | 0.93 | > 10 | 0.983 | > 20 | 0.985 | > 2.56 | 0.937 | > 10 | 0.97 | > 1020 | 0.896 | > 512 | 0.833 | 3.5 | 0.667 | 1.92 | 0.818 | 9.72
RO82-W-1 (thyroid, adherent) | 0.668 | 2100 | 0.904 | > 2000 | 0.976 | > 5 | 0.979 | > 20 | 0.967 | > 10 | 0.982 | > 20 | 0.94 | > 2.56 | 0.9 | > 10 | 0.982 | > 1020 | 0.761 | 231 | 0.866 | > 5 | 0.955 | > 10.2 | 0.973 | > 16
